Test results reported in the supplement of paper PMC4166925.
± gives the standard deviation of the averaged measurements. The full ranking holds about 33,000 sequences; the median of “E-score (dimensionless, -0.5 to 0.5)” is about -0.046, and the highest 2% start at about 0.36. The list shows a part of the results.

Tested on: T1, SpTbr T-box DNA-binding domain (GST fusion)
T1 sequence: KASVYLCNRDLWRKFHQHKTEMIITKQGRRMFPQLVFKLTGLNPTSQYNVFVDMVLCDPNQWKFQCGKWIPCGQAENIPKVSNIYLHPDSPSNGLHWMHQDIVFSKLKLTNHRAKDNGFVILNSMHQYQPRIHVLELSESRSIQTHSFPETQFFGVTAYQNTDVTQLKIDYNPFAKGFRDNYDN
Experiment: PBM E-score of 8-mer (E-score (dimensionless, -0.5 to 0.5)); Tbr is Tbrain of the sea star Patiria miniata (Pm) or the sea urchin Strongylocentrotus purpuratus (Sp); higher = stronger binding preference; most listed sequences are background and not binding sites
Settings: the construct has about 5 more residues each side
Method: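 Universal protein-binding microarray (Agilent AMADID 016060, 60-bp probes with a 35-bp variable region) incubated with 200 nM GST-fused Strongylocentrotus purpuratus Tbr T-box DNA-binding domain (residues 362-554) in PBS pH 7.5. Scored for every ungapped 8-mer (given with its reverse complement) as E-score (range -0.5 to 0.5; >0.45 counts as bound) and Z-score of median probe intensity. Two replicate arrays (datasets 1 and 2).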
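Further: protein at 200 nM in PBS on universal double-stranded arrays.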

Sequence	PBM E-score of 8-mer
GAAGGGCC	-0.301 ± 0.0059
GAGACGCA	-0.224 ± 0.062
CAGTGAAC	0.0151 ± 0.01
GTAACCAA	-0.094 ± 0.078
ACTTTCAA	0.0855 ± 0.0062
GATAAGAC	-0.132 ± 0.031
GCCTGCGC	-0.167 ± 0.0057
ACACCGGA	0.0158 ± 0.026
GACGTAAA	-0.0319 ± 0.036
ACCAGGCC	-0.0574 ± 0.021
TAAATCGA	-0.0294 ± 0.035
CAGTGGGG	-0.0704 ± 0.058
GAGGAAAC	-0.00485 ± 0.068
CCCGCTAA	0.229 ± 0.012
AACAGATA	0.128 ± 0.033
ACCTATAA	0.0305 ± 0.073
CTGCTGTC	-0.0164 ± 0.04
ATCGAGTC	-0.0285 ± 0.051
GACTTACA	0.071 ± 0.04
CACTAGTA	0.163 ± 0.075
GATGCCTA	-0.279 ± 0.11
GCGGTGCC	0.00669 ± 0.075
GATGCCAC	0.23 ± 0.013
AGTTTCGC	0.232 ± 0.013
ACCTTAAC	0.0189 ± 0.043

Sequence	PBM E-score of 8-mer
GGTGTATA	0.0761 ± 0.077
AACCGTCC	-0.0341 ± 0.016
ATTAAGAG	-0.232 ± 0.011
ACCAGCCC	-0.241 ± 0.056
CACCACAC	0.3556 ± 0.0015
CGTGACAG	0.217 ± 0.019
ATCCGACA	0.108 ± 0.011
AGCGCGGG	-0.009 ± 0.12
CCGAAGCA	-0.00602 ± 0.051
CAACATTG	0.11 ± 0.029
CATGTAGA	-0.248 ± 0.053
GCTGGATA	-0.149 ± 0.026
ATCTGCAC	0.0473 ± 0.028
GACTTTCC	-0.0261 ± 0.013
AGACGATG	-0.109 ± 0.038
CGCGGTGC	0.0699 ± 0.082
AGGGGAGG	-0.19 ± 0.0058
ATCCACAT	0.046 ± 0.0025
AAACAGTG	-0.071 ± 0.047
CAACTTCG	0.0821 ± 0.006
CTTCCTGA	-0.192 ± 0.0037
AGCGTCCA	-0.224 ± 0.015
AATATTTG	0.0401 ± 0.029
CGATTGAC	0.17 ± 0.033
ATACGGGA	-0.154 ± 0.055

Sequence	PBM E-score of 8-mer
ACCCGACA	0.247 ± 0.0042
CCTATATA	0.000255 ± 0.073
CAAGCTAA	-0.0767 ± 0.036
ACGCCAGA	0.00969 ± 0.053
AGACTCCG	-0.222 ± 0.046
GATTGCGA	0.262 ± 0.017
CATATCAG	-0.155 ± 0.0067
CGGTTGAC	0.2058 ± 0.0018
AGATTCTG	-0.121 ± 0.051
CGTAAAGA	-0.177 ± 0.085
CAGACCCA	-0.0355 ± 0.018
CTGCTAGA	0.0342 ± 0.0095
GCGTCCTA	-0.213 ± 0.026
CCCGGCCG	-0.0304 ± 0.0027
CATACATC	-0.0101 ± 0.062
GGGTACCC	-0.0754 ± 0.026
CAAAGCCA	-0.183 ± 0.032
AATACTGG	-0.329 ± 0.041
CCCAGCAC	0.0519 ± 0.051
AATTACAA	-0.0716 ± 0.01
AGATTTAT	-0.00615 ± 0.033
AACATAAA	-0.159 ± 0.017
GGGGACGA	-0.218 ± 0.092
ACAACACG	0.239 ± 0.0031
TTAGGCAA	-0.0324 ± 0.01

Sequence	PBM E-score of 8-mer
CCATACGG	-0.202 ± 0.018
ACTAGAGG	-0.111 ± 0.025
GGGAGCGA	0.0295 ± 0.041
GATCTAAA	-0.0448 ± 0.006
ATCACTCA	0.139 ± 0.018
CCGAGTGA	0.157 ± 0.02
GATACTCA	-0.225 ± 0.0066
GACTCGCC	-0.131 ± 0.0047
GGGATGCA	-0.24 ± 0.051
ACAATCTA	-0.0483 ± 0.0064
CATCTGGG	-0.105 ± 0.05
GCTTAGCC	-0.131 ± 0.015
CGCACACC	0.327 ± 0.036
ACGGCTTA	0.0426 ± 0.051
AGACACGA	-0.0522 ± 0.047
ATCTACCG	-0.155 ± 0.064
TGACTGAA	-0.0347 ± 0.091
AACTAGAG	-0.121 ± 0.15
GCCCAGGA	-0.1827 ± 0.0014
TAACTATA	-0.0992 ± 0.044
GCGGCAGC	0.0933 ± 0.05
GACTAGCA	0.0676 ± 0.022
AATCGAAT	-0.129 ± 0.06
ACGCTGTA	0.102 ± 0.047
ACGTAGGA	-0.214 ± 0.02

Sequence	PBM E-score of 8-mer
CTTTAGAA	-0.167 ± 0.032
CTGCCGCA	-0.0714 ± 0.043
CTATAATC	-0.114 ± 0.018
AGCGCCGC	0.091 ± 0.0034
CACCCGAA	0.151 ± 0.013
AATGCCGA	-0.0904 ± 0.14
GTCGTCGA	0.0692 ± 0.15
AGCAGAGA	-0.259 ± 0.039
GGCGAAAA	0.0241 ± 0.021
ACGAAATG	-0.0253 ± 0.033
GCATTTAA	-0.0933 ± 0.068
CCATCGCG	0.14 ± 0.078
GAAGTCCA	-0.108 ± 0.025
AGAAGGCA	-0.0541 ± 0.0098
CCGAGCAC	-0.0191 ± 0.066
AGTACGCC	-0.139 ± 0.023
ACGGTCTC	-0.0762 ± 0.06
ATTAGTCG	-0.0379 ± 0.062
CACATCAG	0.228 ± 0.033
GGGTAGTA	-0.213 ± 0.11
CGGCTTAG	-0.105 ± 0.025
ACTCCCTA	-0.0912 ± 0.011
CCTAACAC	0.4165 ± 0.0028
AAACTTCT	-0.146 ± 0.1
GGCAAGCC	-0.153 ± 0.07

Sequence	PBM E-score of 8-mer
AATTTGTG	0.0488 ± 0.1
AAGGACAA	-0.0652 ± 0.051
CCGGCTAA	-0.0862 ± 0.019
AACGCACT	0.0575 ± 0.047
CTGGGACA	-0.241 ± 0.058
TAGCGCAA	0.231 ± 0.016
GCGTATTA	0.00166 ± 0.048
GTAGCGCA	-0.148 ± 0.091
AGCTAGAG	-0.0382 ± 0.025
CGGCTTTC	-0.0277 ± 0.031
ACCCCTCT	-0.063 ± 0.085
ACTCCTTC	-0.0245 ± 0.025
ACCGTGTG	0.203 ± 0.052
GAGGTCTA	-0.284 ± 0.0014
GTTAGGCA	-0.0322 ± 0.014
CGCAATCC	0.0307 ± 0.032
AATTACTC	0.0848 ± 0.054
ACTGTCAG	0.098 ± 0.038
CGTTGGCA	0.297 ± 0.013
AACATCGT	-0.0949 ± 0.034
GACCTCTC	-0.153 ± 0.016
CTCGGAAG	-0.144 ± 0.0097
AACTACCG	-0.143 ± 0.049
CTAGAGAC	-0.0218 ± 0.03
GGGGTTGA	-0.0351 ± 0.11

Sequence	PBM E-score of 8-mer
GATAAACC	-0.0548 ± 0.058
CGGGTCGA	0.00773 ± 0.0096
ACATGTGC	0.142 ± 0.065
ACGGATTG	0.0492 ± 0.024
GATGCTGC	-0.207 ± 0.037
AAAGGGTG	0.252 ± 0.024
CCTACCGA	-0.116 ± 0.11
AAGGGCAC	0.00111 ± 0.074
GCATTGCA	-0.0979 ± 0.0092
CGGAGTCC	-0.199 ± 0.05
CGCGGCTA	0.111 ± 0.012
ACTCATAA	-0.0942 ± 0.0043
CTCTAAAG	-0.232 ± 0.018
AGCTCATG	-0.0522 ± 0.014
ACGCAACC	-0.0406 ± 0.1
CTGACGCC	0.288 ± 0.031
AAAGGTAG	-0.11 ± 0.06
CTGCCCCC	-0.332 ± 0.016
ACCACCTA	0.109 ± 0.065
CACTGAAC	0.0134 ± 0.035
ACGCGGTC	0.103 ± 0.065
ATCCCTAG	-0.075 ± 0.038
